# Data taken from PubChem BioAssay AID1347073 (National Center for Advancing Translational Sciences (NCATS), 2019).
# In all, about 45,000 compounds went through this assay and about 200 (0.44%) were called active. Not shown: some 7% with an inconclusive outcome. The call rests on the fitted dose curve; in most records, active means well fitted activation curve with a large enough effect; inconclusive means small, poorly fitted or top-dose-only effect; inactive means no such curve, though single readings can be large or run the other way. Some of the results follow.
# Experiment: qHTS of TDP-43 Inhibitors: NCGC Sytravon Library Screen; further: 0% is about no effect; nearly all actives have a fitted effect of over 55% in size
# Conditions: yeast TDP-43 toxicity rescue, BacTiter-Glo growth, 24 h; series mostly up to 46.1 µM; growth rescue (activation): at the top concentration
# Summary of the method: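 TDP-43-expressing yeast, pregrown in raffinose, seeded at OD600 0.02 in galactose medium with compound for 24 hr at 30 deg C. Growth read by BacTiter-Glo luminescence, so rescue of toxicity appears as activation.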
row,SMILES,growth rescue (activation)
1,O=C(Nc1ccc(F)c(Cl)c1)c1cc(C2CCCN(S(=O)(=O)c3cccc4cccnc34)C2)on1 (stereo unspecified),inactive: 17.7%
2,COc1cccc(NC(=S)NCc2cccnc2)c1,inactive: 4.17%
3,Cc1nnc(NC(=O)CSc2nnc(CCNC(=O)c3ccccc3F)n2C)s1,inactive: -10.2%
4,O=C(/C=C/c1cccc(Cl)c1)NCCc1ccccc1,inactive: 16.4%
5,COCc1nnc(NC(C)=O)s1,inactive: 7.05%
6,CCC(C)(C)N(C(=O)CCC(=O)Nc1cc(C)on1)C(C(=O)NC(C)(C)C)c1ccc(OC)cc1 (stereo unspecified),inactive: -1.72%
7,CCOC(=O)c1cnc(-n2nc(C)cc2C)nc1NC1CCCCC1,inactive: -44.6%
8,COc1ccc(S(=O)(=O)N2CC(O)C[C@H]2C(=O)OCC(=O)N2CCCCCC2)cc1 (stereo partly specified),inactive: -5.73%
9,COC(=O)c1nn(-c2ccccc2)c(Sc2ccc(OC)cc2)c1/C=N/O,inactive: 1.55%
10,Cc1ccc(F)c(S(=O)(=O)NC(=O)C2(C)CCN2C(=O)CCc2ccccc2)c1 (stereo unspecified),inactive: -24.8%
11,CC(=O)N1CCN(C(=O)c2ccc(Cl)c(S(=O)(=O)N3CC(C)OC(C)C3)c2)CC1 (stereo unspecified),inactive: 3.51%
12,CCC(=O)c1ccc(Oc2nc3c(c(=O)n(C)c(=O)n3C)n2CC)cc1,inactive: 2.48%
13,CCOc1ccc(NC(=O)Nc2ccc(Br)cn2)cc1,inactive: 1.27%
14,CCOc1ccc(S(=O)(=O)NCC2CCCO2)cc1NC(=O)c1ccccc1F (stereo unspecified),inactive: 6.4%
15,COc1ccc(/C=C/C(=O)NC(=S)Nc2ccc(Br)cn2)cc1,inactive: 4.02%
16,CSc1ncccc1C(=O)Nc1nc2ccc(S(C)(=O)=O)cc2s1,inactive: -1.7%
17,COCC1CCCN(Cc2nc(C(c3ccccc3)c3ccccc3)no2)C1 (stereo unspecified),inactive: -1.33%
18,COc1ccc(C(=O)c2sc3nc(-c4ccc(OC)cc4)ccc3c2N)cc1,inactive: 9.03%
19,CC(C)/C=C/C(=O)N1CCC(N2CCC(C(=O)N3CCOCC3)CC2)CC1,inactive: 6.28%
20,Cc1ccc(S(=O)(=O)NC(=O)NN2CC3CCCC3C2)cc1 (stereo unspecified),inactive: 6.95%
21,O=C(Nc1ccccc1)C1=C(c2ccccc2)S(=O)(=O)CCS1(=O)=O,inactive: -0.158%
22,CCn1c(CN2CCOCC2)nnc1SCC(=O)Nc1ccccc1Cl,inactive: 12.4%

row,SMILES,growth rescue (activation)
1,CCOC(=O)N1CCN(c2nc(SC)nc3sc4c(c23)CC(C)(C)OC4)CC1,inactive: 10.1%
2,O=C(OCc1cnc(Cl)s1)c1c(F)cccc1F,inactive: 28.3%
3,C/C(=N\NC(=O)c1cc(Cl)ccc1O)c1ccc(Br)s1,inactive: 19.1%
4,Cc1csc(SCC(=O)Nc2ccccc2)n1,inactive: -0.346%
5,CCN(CC)S(=O)(=O)c1ccc(N2CCOCC2)c(NC(=S)NC(=O)c2ccco2)c1,inactive: 29.8%
6,Cc1c(CC(=O)O)c(=O)oc2c(C)c3occ(-c4ccc(F)cc4)c3cc12,inactive: -1.11%
7,CCc1nnc(NC(=O)CSc2nc3c(cc2C#N)CCC3)s1,inactive: 23.8%
8,NC(=O)COC(=O)c1cc(=O)[nH]c2ccc(S(=O)(=O)Nc3ccc(F)cc3)cc12,inactive: 1.72%
9,O=C(N/N=C/c1ccccc1F)c1ccccc1OCc1ccccc1,inactive: 10.5%
10,COc1cccc(CC(=O)Nc2nc3c(s2)C(=O)CC(C)(C)C3)c1,inactive: -4.88%
11,O=C(COC(=O)COc1ccc(Cl)cc1)NCc1ccc2c(c1)OCO2,inactive: 5.05%
12,CCNC(=O)NC(=O)C(C)N1C(=O)NC(c2ccccc2)(c2ccccc2)C1=O (stereo unspecified),inactive: 10.6%
13,CC(C(=O)OCC(=O)Nc1cccc(S(=O)(=O)N2CCOCC2)c1)N1C(=O)c2ccccc2C1=O (stereo unspecified),inactive: 7.04%
14,CCOC(=O)c1c(NC(=O)C2C3CCC(O3)C2C(=O)O)sc2c1CCC(CC)C2 (stereo unspecified),inactive: 2.61%
15,CCC(C)Cn1c(C)nc2ccccc21 (stereo unspecified),inactive: 23.5%
16,O=C(CSc1nc(O)c(Cc2ccccc2)c(=O)[nH]1)Nc1nnc(SCc2ccccc2)s1,inactive: 24.1%
17,CCOc1ccc(CN(CCc2ccc3c(c2)OCO3)Cc2cc(OC)c(OC)cc2OC)cc1,inactive: -5.02%
18,Cc1nc2ccc(NC(=O)c3cc(S(=O)(=O)N4CCOCC4)ccc3C)cc2s1,inactive: 1.09%
19,O=C(/C=C/c1ccccc1)N(Cc1cccs1)C1CCS(=O)(=O)C1 (stereo unspecified),inactive: 7.91%
20,C/C(N)=C(/C#N)C(=O)CSc1nnc(Nc2c(C)cccc2C)s1,inactive: 26.5%
21,Cc1cccc(N(CC(=O)NC2CCCC2)C(=O)c2csnn2)c1C,inactive: 7.84%
22,O=C(CC(C(=O)O)c1ccc(Cl)cc1)c1ccccc1 (stereo unspecified),inactive: -1.86%

row,SMILES,growth rescue (activation)
1,COc1cccc(CNc2nc3cc(-c4cccc(C(=O)NCCO)c4)sc3c(=O)n2C)c1,inactive: 6.32%
2,Cc1noc(NS(=O)(=O)c2ccc(NC(=O)C(C)(C)C)cc2)c1C,inactive: 4.05%
3,CC(C)Oc1ccc(S(=O)(=O)N2CCOCC2)cc1NC(=O)Cc1ccsc1,inactive: -4.51%
4,COc1ccc(CC(=O)N2CCc3cc(OC)c(OC)cc3C2C)c(OC)c1 (stereo unspecified),inactive: -1.36%
5,NS(=O)(=O)c1ccc(CNC(=O)/C=C/c2c(F)cccc2Cl)cc1,inactive: -0.504%
6,Cn1ccsc1=NC(=O)c1cccc(OC(F)F)c1,inactive: 32.8%
7,COc1ccc(NC(=O)c2cc(C)cc(C)c2)cc1[N+](=O)[O-],inactive: 15.5%
8,CCOc1ccc(N(CC(=O)NC2CCCCC2)C(=O)CCCC(=O)Nc2ccccn2)cc1,inactive: -16.8%
9,COc1ccc(N(CC2CO2)S(=O)(=O)c2ccccc2)cc1 (stereo unspecified),inactive: -7.88%
10,COc1cccc(NC(=O)CN(C)CC(=O)NCc2ccc(F)cc2)c1,inactive: 6.36%
11,Cn1c(CC(=O)Nc2ccc(F)cc2)nnc1SCC(=O)Nc1nncs1,inactive: -0.6%
12,CCOc1ccccc1/C=N\Nc1cnn(Cc2ccccc2)c(=O)c1Cl,inactive: 12.6%
13,CC(C)Sc1snnc1-c1ccccc1,inactive: -21.9%
14,N=C1C(c2nc3ccccc3s2)=C(O)CN1NC(=O)c1ccc([N+](=O)[O-])cc1,inactive: -16.8%
15,CCc1nc2nc(C)c(NS(=O)(=O)c3ccc(Cl)cc3)c(=O)n2[nH]1,inactive: 6.12%
16,COc1ccc(CN(CC2CCC(C(=O)O)CC2)C(=S)Nc2ccccc2OC)cc1 (stereo unspecified),inactive: 1.03%
17,N#Cc1ccc(CSc2nnc(Cc3cccs3)n2Cc2ccco2)cc1,inactive: 11.5%
18,Cc1ccc(CNC(=O)Cc2ccc(-n3cccc3)cc2)cc1,inactive: 13.4%
19,Cc1cc(C)nc(N/N=C/c2ccc3c(c2)OCCO3)n1,inactive: 7%
20,Cc1ccc(-c2csc(C(C)(O)c3cccc(F)c3)n2)cc1C (stereo unspecified),inactive: -42.9%
21,CCC(=O)N1CCN(CCN=CC2=C(O)CC(c3ccc(OC)cc3)CC2=O)CC1 (stereo unspecified),inactive: 22.8%
22,O=C(Cn1nnc(-c2cccc(C(F)(F)F)c2)n1)NC(=O)NCc1ccco1,inactive: -12.5%

row,SMILES,growth rescue (activation)
1,CNC(=S)N/N=C/c1ccccc1OCC(=O)O,inactive: -0.0345%
2,CCOCCCNC(=S)Nc1cc(C)cc(C)c1,inactive: 24.2%
3,COc1ccc(C(=O)CSc2n[nH]c(-c3ccncc3)n2)cc1[N+](=O)[O-],inactive: -10.1%
4,COC(=O)c1sccc1NC(=O)COc1cccc(C)c1,inactive: 18.8%
5,COc1ccc(OCc2cc(C(=O)NC(C)Cn3cncn3)no2)c(Cl)c1 (stereo unspecified),inactive: -10.8%
6,COc1cc2c(cc1OC)C(c1cc3ccc(C)cc3[nH]c1=O)N(C(=O)c1ccco1)CC2 (stereo unspecified),inactive: 13.9%
7,O=C(CSc1nc2ccccc2[nH]1)N/N=C/C=C/c1ccccc1[N+](=O)[O-],inactive: -12.9%
8,COc1ccc(NC(=O)C2CCN(C(=O)Nc3ccc(C)cc3)CC2)cc1OC,inactive: 8.75%
9,O=c1cnn(-c2ccc(Cl)cc2Cl)c(-c2ccccc2)c1,inactive: -1.57%
10,Cc1c(Cl)cccc1NC(=S)N1CCC(N(C)CC2CCCO2)CC1 (stereo unspecified),inactive: 12.4%
11,COc1ccc(OC)c(CC(=O)NC(c2ccccc2)c2ccccc2)c1,inactive: -2.74%
12,COCC[N+]1(C)CCCCC1,inactive: 0.136%
13,Cc1cc(/C=C(\C#N)C(=O)O)c(C)n1CCC(C)C,inactive: 0.37%
14,COc1ccc(N(CC(=O)NCc2cccnc2)S(=O)(=O)c2ccc(C)c([N+](=O)[O-])c2)cc1,inactive: 0.737%
15,Nn1cnc2scc(-c3ccco3)c2c1=O,inactive: 0.975%
16,CC(C)Cc1ccc(-c2ccc3nccn3c2)cc1,inactive: 18.5%
17,O=C(NCC1CCCO1)c1cc(S(=O)(=O)N2CCOCC2)ccc1Cl (stereo unspecified),inactive: 11.2%
18,CCOc1ccccc1OCCC(=O)Nc1ccc(F)c(Cl)c1,inactive: 7.31%
19,CC(C)[C@@H](NC(=O)C1CCC(CNC(=O)[C@H](Cc2ccccc2)NC(=O)OC(C)(C)C)CC1)C(=O)O (stereo partly specified),inactive: 1.35%
20,CN(c1ccc(OCc2ccc([N+](=O)[O-])cc2)cc1)S(=O)(=O)c1ccccc1,inactive: 13.9%
21,CC(=O)NCCNc1nc2cc(-c3ccc(C(=O)N4CCN(C)CC4)cc3)sc2c(=O)n1C,inactive: 12.8%
22,Brc1ccc(/C=N/n2cnnc2)s1,inactive: -4.93%

row,SMILES,growth rescue (activation)
1,COc1ccc(CCNC2CC(=O)N(N(C)C)C2=O)cc1OC (stereo unspecified),inactive: -0.898%
2,OCC1(Cc2ccccc2C(F)(F)F)CCN(Cc2cccc3cnccc23)CC1,inactive: -10.3%
3,Cc1c(C#N)c(O)[nH]c(=O)c1N=Nc1ccc(S(N)(=O)=O)cc1,inactive: -0.904%
4,O=C(CNC(=O)c1cccc(F)c1)N/N=C/C=C/c1ccccc1,inactive: -0.361%
5,Cc1cc(NS(=O)(=O)c2ccc(NC(=O)c3ccc([N+](=O)[O-])c(Cl)c3)cc2)no1,inactive: -19.2%
6,Cc1ccc(-c2nnc(Nc3ccc(C(N)=O)cc3)c3ccccc23)cc1S(=O)(=O)NCC1CCCO1 (stereo unspecified),inactive: -3.28%
7,COc1cc(CC(=O)Nc2cc(S(C)(=O)=O)ccc2Cl)cc(OC)c1OC,inactive: -4.52%
8,Cc1cccc(C)c1N1C(=O)[C@@H]2C(c3ccccc3Cl)=NO[C@@H]2C1=O,inactive: 4.18%
9,CCOC(=O)N1CCC(N(CCN(C)C)C(=S)Nc2cccc(Cl)c2C)CC1,inactive: 12.1%
10,CC(NC(=O)C1CCN(S(=O)(=O)N2CCC3(CC2)OCCO3)CC1)c1ccccc1 (stereo unspecified),inactive: -12%
11,CCCCn1c(N)c(N(CC(C)C)C(=O)COc2cc(C)ccc2Cl)c(=O)[nH]c1=O,inactive: 19.2%
12,CCOc1ccc(S(=O)(=O)N(CC(=O)NCC2CCCO2)c2ccc(F)cc2)cc1 (stereo unspecified),inactive: -12.8%
13,CCn1c2ccccc2c2cc(NC(=O)CNC)ccc21,inactive: -1.66%
14,CCCN1CC(=O)N2C(c3ccccc3)c3[nH]c4ccccc4c3C[C@H]2C1=O (stereo partly specified),inactive: -8.6%
15,c1ccc2sc(Sc3ncnc4sccc34)nc2c1,inactive: 30.1%
16,CC(C)(C)NC(=O)Cn1c(=O)n(CC(=O)NC(C)(C)C)c2ccccc21,inactive: 0.79%
17,CCN(c1ccccc1)S(=O)(=O)c1ccc(C(=O)NCCCn2ccnc2)cc1,inactive: -7.54%
18,CN(NC(=O)CN1C(=O)c2ccccc2C1=O)C1=NS(=O)(=O)c2ccccc21,inactive: -2.36%
